We go through 30 molecules from PubChem BioAssay AID1745853 (National Center for Advancing Translational Sciences (NCATS), 2022).

Holding throughout (assay): Primary Screen for Target Class Profiling of Small Molecule Inhibitors of Methyltransferases
The target in test [1] is Glycine N-methyltransferase (Homo sapiens) (UniProt Q14749). The conditions noted are these: purified enzyme, MTase-Glo SAH luminescence; measured here: GNMT inhibition; at 40 µM; stronger effect = lower value. In short, it runs like this:
(§1)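 Each enzyme was assayed with SAM and its substrate. SAH formation detected by MTase-Glo luminescence; single-point 40 uM screen[…].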

Test [2] deals with Guanidinoacetate N-methyltransferase (Homo sapiens) (UniProt Q14353). The conditions noted are these: purified enzyme, MTase-Glo SAH luminescence; measured here: GAMT inhibition; at 40 µM; stronger effect = lower value. In short, it runs like this:
as §1

Test [3] has as its target Histamine N-methyltransferase (Homo sapiens) (UniProt P50135). To be noted: purified enzyme, MTase-Glo SAH luminescence; measured here: HNMT inhibition; at 40 µM; stronger effect = lower value. The gist of the method:
as §1

The target of test [4] is Nicotinamide N-methyltransferase (Homo sapiens) (UniProt P40261). The conditions noted are these: purified enzyme, MTase-Glo SAH luminescence; measured here: NNMT inhibition; at 40 µM; stronger effect = lower value. The gist of the method: as §1
The target in test [5] is Phenylethanolamine N-methyltransferase (Homo sapiens) (UniProt P11086). The conditions noted are these: purified enzyme, MTase-Glo SAH luminescence; measured here: PNMT inhibition; at 40 µM; stronger effect = lower value. The gist of the method:
as §1

Values joined by “and” are separate entries in the source; they are usually repeats but may differ in a detail not shown here. Equal values may be shown once. The list shows a part of the results. The main result of the screen is listed elsewhere. These columns were measured beside it and carry no call.
% is set by controls: 0 for no effect and ±100 for the full control effect.

Take `CCCCN1C(=O)c2ccc(-c3ccco3)n2CC1(C)C(=O)NC1CCCCCCC1` (stereo not given): the activity change, negative = inhibition in test [1] is -13%; in test [2], 0%; in test [3] it was -6.96%; in test [4], -23.7%; in test [5], -7.74%.

As for `CCCn1c(=O)c2ccc(Cl)cc2n2c(=O)n(CC(=O)Nc3ccc4c(c3)OCO4)nc12`, the activity change, negative = inhibition is -3.78% in test [1]; -5.96% in test [2]; 11.5% in test [3]; -9.78% in test [4]; -3.93% in test [5].

In the case of `CN1CCN(C)c2cnc(-c3cnn(Cc4ccccc4)c3)cc2C1`, the activity change, negative = inhibition was -17.8% in test [1]; -17.7% in test [2]; -66.2% in test [3]; -25.8% in test [4]; -17.9% in test [5].

Turning to `CCN1CCC[C@H]1CNC(=O)c1cc(S(N)(=O)=O)ccc1OC`, the activity change, negative = inhibition is -5.86% and 2.94% in test [1]; -17% and 9.05% in test [2]; -0.693% and -1.01% in test [3]; -19.8% and -5.12% in test [4]; -1.62% and 4.97% in test [5].

As for `COc1ccc(C(=O)N2CCC3(CCC3OC)CC2)cn1` (stereo not given), the activity change, negative = inhibition in test [1] is -0.575%; in test [2], 0.705%; in test [3], -0.916%; in test [4] it was -5.9%; in test [5], 0.579%.

`O=C(CCN1CCN(C(=O)OCc2cc(Cl)cc(Cl)c2)CC1)c1ccc2[nH]c(=O)oc2c1`: the activity change, negative = inhibition in test [1] was 0.758%; in test [2] it was 3.85%; in test [3], 3.44%; in test [4], -26.2%; in test [5] it was -11.7%.

For `O=C(/C=C/c1ccc(O)c(O)c1)OCc1ccccc1O[C@@H]1O[C@H](CO)[C@@H](O)[C@H](O)[C@H]1O`, the activity change, negative = inhibition is -0.649% in test [1]; 7.14% in test [2]; 6.04% in test [3]; -7.01% in test [4]; 4.8% in test [5].

As to `O=C(Nc1ccc(-c2ccncc2)cc1)N[C@H](CO)c1ccccc1`, the activity change, negative = inhibition in test [1] was -3.26%; in test [2], 1.55%; in test [3] it was -3.52%; in test [4], -10.5%; in test [5] it was -0.595%.

With `Cc1ccccc1CN1C(=O)c2cc3ccccc3n2CC1(C)C(=O)NCCCOC(C)C` (stereo not given), the activity change, negative = inhibition in test [1] was 1.64%; in test [2], 5.86%; in test [3], 1.23%; in test [4], 4.03%; in test [5] it was -1.12%.

As for `Cc1cc2nc3n(c(=O)c2n1CC(=O)NCCc1ccc(Cl)cc1)CCCC3`, the activity change, negative = inhibition in test [1] was -5.19%; in test [2] it was -10.3%; in test [3] it was -2.65%; in test [4], -12.9%; in test [5] it was -5.71%.

In the case of `COc1ccc(Cl)cc1N1C(=O)CSc2c(c3ccccc3n2C)C1C(=O)NCCCOC(C)C` (stereo not given), the activity change, negative = inhibition is 1.28% in test [1]; 0% in test [2]; -3.93% in test [3]; -4.45% in test [4]; -0.246% in test [5].

With `C/C(=C/CO)CCC1C(C)CCC2C(C)(C)CCCC12C` (stereo not given), the activity change, negative = inhibition was 2.1% in test [1]; 5.27% in test [2]; 2.06% in test [3]; -12.8% in test [4]; -1.64% in test [5].

For the molecule `COc1cc(C2c3cc(O)c(OC)cc3CC(CO)C2CO)ccc1O` (stereo not given), the activity change, negative = inhibition was -3.33% in test [1]; 0.433% in test [2]; 3.57% in test [3]; -10.8% in test [4]; 0.154% in test [5].

On to `CCC(C(=O)NCc1ccc(Cl)cc1)n1ccc2cc(S(=O)(=O)N3CCCCC3)ccc21` (stereo not given), for which the activity change, negative = inhibition in test [1] came out at 3.95%; in test [2], 0.759%; in test [3], 1.95%; in test [4] it was 5.37%; in test [5], 3.13%.

In the case of `O=C(CCO[C@@H]1O[C@H](CO)[C@@H](O)[C@H](O)[C@H]1O)c1ccc(O)cc1`, the activity change, negative = inhibition in test [1] is 0%; in test [2], 4.77%; in test [3] it was 10.4%; in test [4], -6.03%; in test [5] it was 0.059%.

Turning to `COc1cc(C)c(C(=O)O[C@H]2[C@@H](OC(C)=O)[C@H](n3ccc(=O)[nH]c3=O)O[C@@H]2CO)c(OC)c1`, the activity change, negative = inhibition in test [1] was -0.62%; in test [2], -4.51%; in test [3] it was 6.91%; in test [4], -14.7%; in test [5] it was -2.76%.

`C=CCNC(=O)N[C@H]1CO[C@H]2[C@@H]1OC[C@@H]2Nc1nccc(C(C)(C)C)n1`: the activity change, negative = inhibition was -4.1% in test [1]; -3.38% in test [2]; -2.11% in test [3]; -3.89% in test [4]; 3.58% in test [5].

As to `Cc1ccccc1CCNC(=O)Cn1ccc2cc(S(=O)(=O)N3CCCCC3)ccc21`, the activity change, negative = inhibition in test [1] is 0.457%; in test [2], 5.04%; in test [3], 4.11%; in test [4], -1.9%; in test [5] it was -7.53%.

Regarding `Cn1c(=O)n(C)c2cc(S(=O)(=O)Nc3ccc(Cl)cc3)ccc21`, the activity change, negative = inhibition in test [1] is -14%; in test [2], -3.82%; in test [3], -4.75%; in test [4], -9.69%; in test [5], -4.21%.

As to `O=C(CCn1ccc2cc(S(=O)(=O)N3CCCC3)ccc21)NC1CC1`, the activity change, negative = inhibition worked out at 7.45% in test [1]; 0.444% in test [2]; 8.07% in test [3]; 11.2% in test [4]; 7.37% in test [5].

In the case of `O=C(Nc1ccccc1C(F)(F)F)N1CCn2cccc2C1Cc1ccccc1` (stereo not given), the activity change, negative = inhibition was 0.105% in test [1]; 0.388% in test [2]; -4.29% in test [3]; -1.63% in test [4]; -3.37% in test [5].

Turning to `CCCCNc1ncc(-c2ccc(CN3CCOCC3)cn2)c(NC2CCC(O)CC2)n1` (stereo not given), the activity change, negative = inhibition was -3.17% in test [1]; -3.04% in test [2]; -1.54% in test [3]; -12.9% in test [4]; -2.03% in test [5].

For the molecule `CCCn1c(=O)c2ccc(C(=O)NCC(C)C)cc2n2c(=O)n(CC(=O)c3ccc(OC)cc3)nc12`, the activity change, negative = inhibition in test [1] was -1.08%; in test [2] it was 2.94%; in test [3] it was 0.948%; in test [4] it was -0.61%; in test [5], -1.01%.

Consider `O=C(CCc1cc2n(n1)CCNC2)NCc1nc2ccc(Cl)cc2[nH]1`, for which the activity change, negative = inhibition in test [1] was -4.33%; in test [2], -2.02%; in test [3], -3.09%; in test [4], -5.57%; in test [5], -30.9%.

For `CN(c1ccccc1)c1cc(=O)c2ccnc(NCC3CCOCC3)c2o1`, the activity change, negative = inhibition in test [1] is -27.7%; in test [2] it was -26.4%; in test [3] it was -34.6%; in test [4] it was -37%; in test [5] it was -17.2%.

For `CC(=O)Nc1c2n(c3ccccc13)CC(C)(C(=O)NC1CCCCCC1)N(C1CCCCCC1)C2=O` (stereo not given), the activity change, negative = inhibition in test [1] is -0.408%; in test [2], 2.27%; in test [3] it was -7.99%; in test [4], -4.32%; in test [5], 0.735%.

On to `CC(C)c1nccn1Cc1cc(C(=O)N(C)Cc2ccccc2Cl)n[nH]1`, for which the activity change, negative = inhibition in test [1] is -0.183%; in test [2], -1.4%; in test [3], -3.27%; in test [4], -0.594%; in test [5] it was 1.05%.

For `O=C(c1cccc(-c2ccccn2)c1)N1CCN([S+](=O)([O-])c2ccccc2)CC1`, the activity change, negative = inhibition in test [1] was -5.53%; in test [2] it was -4.49%; in test [3], -5.28%; in test [4] it was -15.9%; in test [5], -13.8%.

Take `Cc1ccc(NC(=O)Cn2c(=O)oc3cc(S(=O)(=O)N4CCCC4)ccc32)cc1Cl`: the activity change, negative = inhibition in test [1] was -5.33%; in test [2] it was -4.25%; in test [3], -8.67%; in test [4], -9.01%; in test [5], -27%.

For the molecule `CC(C)CCn1c(=O)c2ccc(C(=O)NC(C)C)cc2n2c(=O)n(CC(=O)NC(C)(C)C)nc12`, the activity change, negative = inhibition in test [1] is 2.51%; in test [2] it was 3.52%; in test [3], 6.89%; in test [4], -8.61%; in test [5], 2.08%.
